In PubChem BioAssay AID743279 (National Center for Advancing Translational Sciences (NCATS), 2014):
About 17,000 (4.7%) of roughly 360,000 compounds were called active. The inconclusive results got no clear call from the source; some entries with a clear call stand among them for comparison. Cut-off read from the data, not from the text of the source: active = activity change below about -50%; inconclusive = mostly about -30% to -49%; inactive = weaker than that.

assay: qHTS for Inhibitors of Inflammasome Signaling: IL-1-beta AlphaLISA Primary Screen; conditions: THP-1 LPS/ATP IL-1B secretion, 16 h, at 57.5 µM, hits give low values
How it was run: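 Secreted IL-1B measured by AlphaLISA bead assay after 16 h compound exposure of THP-1 cells; compounds (final up to 57.5 uM) added 1 h before LPS (250 ng/mL) and ATP (1.25 mM) stimulation; lower signal means less secretion.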
% is set by controls: 0 for no effect and ±100 for the full control effect.

SMILES	activity change
COc1ccccc1OP(=O)(Nc1ccc(Br)cc1)Oc1ccccc1OC	inconclusive: -46.4%
COc1cc(C(=O)Nc2ccc(Br)cc2C(=O)c2ccccc2)cc(OC)c1OC	inactive: -1.85%
COc1ccccc1N1C(=O)NC(=O)/C(=C/c2ccc([N+](=O)[O-])s2)C1=O	active: -61.6%
CCOC(=O)[C@]12Cc3c(cc(OC)c(OC)c3OC)[C@H]1N(C1CCCCC1)C(=O)c1ccccc12	active: -113%
CCCN(CC#CCOc1ccc(OC)cc1)CCC	inactive: 24.1%
Cc1cc(C(=O)C[N+]23CCN(CC2)CC3)c(C)n1-c1ccc(Br)cc1	inactive: -26.2%
Cc1cc(C(=O)Nc2ccc3c(c2)OCCO3)nn1C(C)(C)C	inconclusive: -33.7%
c1ccc(CCNC2CCCCCC2)cc1	inconclusive: -30.2%
CC(=NCc1ccc2c(c1)OCO2)c1c(O)n(-c2ccccc2)c(=O)[nH]c1=O	inactive: -16.4%
Cc1ccc(S(=O)(=O)NCCC(=O)Nc2ccc(Cl)cc2C(=O)c2ccccc2)cc1	inconclusive: -30.8%
O=c1c2ccccc2nc(/C=C/c2ccc([N+](=O)[O-])o2)n1-c1ccc(O)cc1	active: -87.7%
COc1cc(O)c2c(c1)/C=C/C[C@H](O)[C@H](O)C(=O)CCC[C@H](C)OC2=O	active: -81.3%
CC(Cc1ccccc1Sc1ccccc1)N(C)C (centres undefined)	inconclusive: -35.7%
NCCc1ccc(OCc2ccccc2)c(OCc2ccccc2)c1	active: -81.9%
C[C@@H]1O[C@@H](O[C@H]2C[C@@H](O)[C@]3(CO)[C@@H]4C(CC[C@]3(O)C2)[C@@]2(O)CC[C@H](C3COC(=O)C3)[C@@]2(C)C[C@H]4O)[C@H](O)[C@H](O)[C@H]1O (some centres undefined)	active: -64.5%
COC(=O)C1=C(c2cc3ccccc3o2)C[C@@H]2CC[C@H]1N2C(=O)NCc1ccc(C(F)(F)F)cc1	inconclusive: -41.6%
COc1ccc(-c2cc(=NCCCCCC(=O)O)c3cc(C)ccc3o2)cc1	inconclusive: -33.2%
OC1(c2ccc(F)cc2)CC2CCC(C1)N2Cc1nnnn1C1CCCCC1 (centres undefined)	inconclusive: -36.8%
CCOC(=O)C1(Cc2ccc(Cl)cc2)CCN(C(C)CCn2cccn2)CC1 (centres undefined)	inconclusive: -40.3%
CN1CC(C(=O)c2ccc(Cl)cc2)C(c2ccc(Cl)cc2Cl)C1 (centres undefined)	inconclusive: -44.5%
COC(=O)C12OCC34C(CC5C(C)=C(O)C(=O)CC5(C)C3C(O)C1O)OC(=O)C(OC(=O)/C=C(\C)C(C)C)C24 (centres undefined)	active: -98.2%

SMILES	activity change
Cc1cc(OCC(=O)NCC(O)c2ccccc2)c2c3c(c(=O)oc2c1)CCCC3 (centres undefined)	inactive: -19.3%
CCCCCn1c(NC(=O)c2ccco2)c(C(=O)OCC)c2nc3ccccc3nc21	active: -101%
O=c1[nH]c2ccccc2n1C1CCN(C(c2cc3ccccc3o2)c2nnnn2Cc2ccccc2)CC1 (centres undefined)	inconclusive: -49%
CNC(=O)Oc1ccc(-c2cn3cc(Cl)ccc3n2)cc1	inconclusive: -41.7%
CSc1nc(N)c(N=Nc2ccc([As](=O)(O)O)cc2)c(=O)[nH]1	inconclusive: -45.1%
CN1C[C@H](CNC(=O)OCc2ccccc2)C[C@@H]2c3cccc4c3c(cn4C)C[C@H]21	inconclusive: -45.6%
CCN(CC)C(=O)c1ccc(NC(=S)NC(=O)CCc2ccccc2)cc1	inconclusive: -37.2%
Cc1ccc2cc(C=C(C#N)C#N)c(Cl)nc2c1	active: -96.4%
COc1ccc(C(=O)N/N=C/C23CC[C@@H](O)CC2(O)CC[C@@H]2[C@@H]3CCC3(C)C(C4=CC(=O)OC4)CCC23O)cc1 (some centres undefined)	active: -70.6%
Cc1ccc(-c2cc(C(=O)N3CCC4(CC3)OCCO4)no2)cc1	inconclusive: -45.8%
CCc1cc(=O)[nH]c(SCCCF)n1	inactive: 9.75%
FC(F)(F)c1ccc2c(c1)nnn2C1CCN(Cc2nnnn2Cc2ccccc2)CC1	inconclusive: -42.5%
COc1cc([N+](=O)[O-])c2ncccc2c1[N+](=O)[O-]	active: -117%
COC(=O)c1ccc(NC(=O)CSc2nc3ccc(N4C(=O)C5C6C=CC(C6)C5C4=O)cc3s2)cc1 (centres undefined)	inconclusive: -38%
COc1ccccc1CCNCc1ccc(OC)c(OC)c1OC	inconclusive: -32.2%
CCN(CC)c1ccc(/C=C2\C(=O)NC(=S)N(C)C2=O)o1	inconclusive: -47.1%
COc1cccc(CCNCc2cccc(C(F)(F)F)c2)c1	active: -136%
Cc1ccc(C)c(NP(=O)(Oc2ccccc2)Oc2ccccc2)c1	inconclusive: -33.6%
CCC(C)NC(=O)c1c(N)n(CCCOC)c2nc3ccccc3nc12 (centres undefined)	inconclusive: -44%
C[C@]12CC[C@H](O)C[C@H]1CC[C@@H]1[C@@H]2CC[C@]2(C)[C@@H](C3=CC(=O)OC3)CC[C@]12O	inconclusive: -41.7%
COc1ccc(CCNCc2c(OC)ccc3ccccc23)cc1	active: -63.6%

SMILES	activity change
O=C1NCN(c2ccccc2)C12CCN(C(CCc1ccccc1)c1nnnn1Cc1ccccc1)CC2 (centres undefined)	inconclusive: -42%
Cc1sc2c(c1C)C(c1cccs1)=NCC(=O)N2CC(=O)NCc1cccs1	inconclusive: -36.1%
Nc1ccc2cc(Br)ccc2c1	inconclusive: -42.3%
COc1ccccc1-n1c(Cc2ccccc2)nc2ccccc2c1=O	inconclusive: -33.9%
N#CC1C(C#N)C2CCC1C1C2N1c1ccccc1 (centres undefined)	inactive: 1.23%
COC(=O)C1=C(c2cccc(OCc3ccccc3)c2)C[C@@H]2CC[C@H]1N2C(=O)NCc1cccc(C(F)(F)F)c1	inconclusive: -39.7%
N[C@@H](Cc1c[nH]c2ccccc12)c1nnc(SCc2ccccc2)o1	inconclusive: -41.8%
COc1cc2c(cc1OC)C(C1c3cc4c(cc3CCN1C)OCO4)OC2=O (centres undefined)	inactive: 0.922%
Cc1nn(Cc2ccccc2)c(C)c1C=C1C(=O)NC(=S)NC1=O	inconclusive: -30.2%
Cc1cccc(Cn2cc(C=O)c3ccccc32)c1	inactive: -23.5%
CCOc1ccc(CN2CCCC(C(=O)c3ccccc3OC)C2)cc1 (centres undefined)	active: -58.2%
O=C(COc1ccccc1Cl)N1CCCC(N2CCN(c3ccc(F)cc3)CC2)C1 (centres undefined)	inconclusive: -37.9%
Cc1cc(NC(=O)CCl)nn1C	active: -101%
CCOC(=O)C1=C(NC(=S)NC(=O)c2ccccc2)c2ccccc2CC12CCCC2	inconclusive: -45.9%
Cc1cc([N+](=O)[O-])c2ccccc2[n+]1[O-]	active: -98.6%
CC(=O)OC1(C)CC(C)C(=O)C(C(O)CC2CC(=O)NC(=O)C2)C1 (centres undefined)	active: -109%
Cc1cccc(NP(=O)(Oc2ccccc2F)Oc2ccccc2F)c1C	inconclusive: -40.1%
O=P(Nc1cccc(F)c1)(Oc1ccccc1F)Oc1ccccc1F	inactive: 0%
CC1CN=C(Nc2ccc(F)cc2)S1 (centres undefined)	inconclusive: -32.2%
CC(NCc1ccc(Cl)cc1Cl)C(O)c1ccccc1 (centres undefined)	inactive: -16.5%
CCCCCn1c(=O)c(C(=O)Nc2ccccc2S(N)(=O)=O)c(O)c2ccccc21	inconclusive: -39.3%

SMILES	activity change
CCOC(=O)c1c(C)n(Cc2ccccc2)c2ccc(OCC(O)Cn3nc(C)cc3C)cc12 (centres undefined)	inconclusive: -36.5%
CC(C)CCn1c(N)c(C(=O)NCc2cccs2)c2nc3ccccc3nc21	inconclusive: -46.7%
CN1CCN(c2ccc([N+](=O)[O-])c3no[n+]([O-])c23)CC1	active: -101%
CCN(CC)C(=O)c1ccc(NC(=O)c2cccc(S(=O)(=O)N3CCN(Cc4ccccc4)CC3)c2)cc1	inconclusive: -32.1%
CC12CCC3C(CCC4(O)CC(O)CCC34C=O)C1(O)CCC2C1=CC(=O)OC1 (centres undefined)	inconclusive: -41.3%
CCC(=NCc1ccc(F)cc1)c1c(O)n(C)c(=O)n(C)c1=O	inactive: -13.7%
COc1ccccc1Cn1c(SCC#N)nc2cc(C(=O)N3CCC4(CC3)OCCO4)ccc2c1=O	inconclusive: -49.3%
CCN(CC)C(=O)c1ccc(NC(=O)COc2ccccc2F)cc1	inactive: -3.98%
CC(=O)C1C2c3ccccc3O[C@@]1(C)N=c1s/c(=C/c3ccoc3)c(=O)n12 (some centres undefined)	inconclusive: -31.1%
O=C1NCN(c2ccccc2)C12CCN(C(c1cccc3ccccc13)c1nnnn1Cc1ccccc1)CC2 (centres undefined)	inconclusive: -34.5%
CCCC(=O)Nc1cc(C(=O)N2CCC3(CC2)OCCO3)ccc1S(=O)(=O)c1ccc(C)cc1	inactive: 30.4%
C[C@H]1CCC/C=C/[C@@H]2C[C@H](O)C[C@H]2[C@@H](O)/C=C/C(=O)O1	active: -53.5%
Cc1ccc([N+](=O)[O-])cc1	inactive: 12.3%
CCOC(=O)[C@]12Cc3cc(OC)ccc3[C@H]1N(C)C(=O)c1ccccc12	inconclusive: -33.8%
O=C(NCC(c1cccnc1)N1CCN(c2ccc(F)cc2)CC1)Oc1ccccc1 (centres undefined)	inconclusive: -38%
CC(N)Cc1cn(Cc2ccccc2)c2ccccc12 (centres undefined)	active: -90.2%
CCCCCCC(=O)N/N=C/c1c(O)n(C(C)CC)c(=S)[nH]c1=O (centres undefined)	inactive: 220%
CCOC(=O)[C@]12Cc3cc(C)ccc3[C@H]1N(CCC(=O)OC)C(=O)c1cc(OC)ccc12	active: -124%
COC(=O)C1=C(c2ccccc2OCc2ccccc2)C[C@@H]2CC[C@H]1N2C(=O)NCCOc1ccccc1	inconclusive: -36.2%
Cc1ccc2c(c1)C1CN(C)CCC1N2C(=O)COc1ccc(S(=O)(=O)N2CCOCC2)cc1 (centres undefined)	inactive: 6.87%
Cc1cc(C=C(C#N)C#N)ccc1N1CCCC1	inconclusive: -34.9%
